# Source: PubChem BioAssay (NCATS)
# This list was built around the results that the source calls inconclusive (neither active nor inactive); the mix of calls is not that of the screen. Where the call is inconclusive, the potency comes from a doubtful curve fit. A note “side channel” means that the fit belongs to a control or component signal, not to the main read-out. The source made the active and inactive calls. The call rests on the fitted dose curve; in most records, active means well fitted activation curve with a large enough effect in the signal ratio, with a control signal flat (not every such curve was filed as active); inconclusive means small, poorly fitted or top-dose-only effect, or effect the other way, or a change in a side signal; inactive means flat fitted curve, though single readings scatter; the % refers to the signal ratio.
# Experiment: qHTS Assay for Identification of Small Molecule Agonists for Hypoxia Response Element Signaling Pathway (AID 914); on activation: top concentration of the series differs between compounds; % of control where 0% means no effect
# Settings: ME-180 (cervical carcinoma) HRE-bla reporter, beta-lactamase ratio, CoCl2, 17 h; activation: stronger effect = higher value
# Summary of the method: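 In Opti-MEM containing 0.5% dialyzed FBS and 10 mM HEPES, ME-180 HRE-bla cells received a compound titration and EC50 CoCl2. They were incubated 17 hours, then CCF4-loaded 2.5 hours at room temperature before ratio reading.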
# Potency means the concentration at half of the fitted maximal effect; tags describe the fitted curve by direction and shape or compound fluorescence and quenching.
Structure (SMILES),activation,Potency
N#C/C(=C\Nc1ccccn1)C(=O)c1ccco1,inactive: -12.2%,–
c1coc(-c2nnc3sc(-c4cccs4)nn23)c1,–,"inconclusive: 0.251 µM [activator, full curve, poor fit]"
CCOC(=O)C1=C(c2ccccc2)NC(SCC(=O)Nc2ccccc2C)=C(C#N)C1c1ccco1 (centres undefined),–,"inconclusive: 10 µM [cytotoxic, side channel, partial curve]"
COC(=O)CSc1nc(C)c(Oc2ccccc2)c(=O)[nH]1,inconclusive: 7%,–
C[N+](C)(C)[C@H](Cc1c[nH]c(=S)[nH]1)C(=O)O,inconclusive: -1.27%,–
COc1ccccc1-n1c(N)c(C(=O)NCC2CCCO2)c2nc3ccccc3nc21 (centres undefined),–,"inconclusive: 12.6 µM [activator, single point]"
O=c1c2ccccc2ncn1Cc1ccco1,inactive: 2.2%,–
C=C(C)CN(CC)CCC(=O)Nc1ccc(OC)cc1OC,inactive: -8.71%,–
COc1ccc(CCn2c(C)ccc2C)cc1OC,inactive: -9.87%,–
COc1ccc(C2CC(c3ccccc3)Nc3nc(N)nn32)cc1 (centres undefined),inconclusive: -51.7%,–
COc1ccc(C(=O)C2CCCCC2=O)cc1 (centres undefined),inactive: 5.32%,–
CCOC(=O)c1c(CN2CCN(CCO)CC2)n(C)c2cc(Br)c(OC)cc12,inconclusive: -26.3%,–
CCOC(=O)Cc1nnc(Nc2cccc(O)c2)c2ccccc12,inconclusive: -33.7%,–
COc1nc(NS(=O)(=O)c2ccc(C)cc2)nc(C)c1Cl,–,"inconclusive: 10 µM [inhibitor, partial curve]"
